The source of these data is article PMC4336329 (PLoS ONE, 2015).

Out of some 310,000 compounds screened, about 14,000 (4.5%) showed an effect of 50% or more. The effect is printed as a negative number. This is one part of the list.
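Further: peak tail current of the secondary pulse compared with the same well before compound.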

In this assay the target is human ether-à-go-go-related gene (hERG) potassium channel (human, UniProt Q12809). The assay can be described thus: primary screen, population patch clamp on CHO cells stably expressing hERG.
Sequence of human ether-à-go-go-related gene (hERG) potassium channel (Q12809 whole entry, looked up): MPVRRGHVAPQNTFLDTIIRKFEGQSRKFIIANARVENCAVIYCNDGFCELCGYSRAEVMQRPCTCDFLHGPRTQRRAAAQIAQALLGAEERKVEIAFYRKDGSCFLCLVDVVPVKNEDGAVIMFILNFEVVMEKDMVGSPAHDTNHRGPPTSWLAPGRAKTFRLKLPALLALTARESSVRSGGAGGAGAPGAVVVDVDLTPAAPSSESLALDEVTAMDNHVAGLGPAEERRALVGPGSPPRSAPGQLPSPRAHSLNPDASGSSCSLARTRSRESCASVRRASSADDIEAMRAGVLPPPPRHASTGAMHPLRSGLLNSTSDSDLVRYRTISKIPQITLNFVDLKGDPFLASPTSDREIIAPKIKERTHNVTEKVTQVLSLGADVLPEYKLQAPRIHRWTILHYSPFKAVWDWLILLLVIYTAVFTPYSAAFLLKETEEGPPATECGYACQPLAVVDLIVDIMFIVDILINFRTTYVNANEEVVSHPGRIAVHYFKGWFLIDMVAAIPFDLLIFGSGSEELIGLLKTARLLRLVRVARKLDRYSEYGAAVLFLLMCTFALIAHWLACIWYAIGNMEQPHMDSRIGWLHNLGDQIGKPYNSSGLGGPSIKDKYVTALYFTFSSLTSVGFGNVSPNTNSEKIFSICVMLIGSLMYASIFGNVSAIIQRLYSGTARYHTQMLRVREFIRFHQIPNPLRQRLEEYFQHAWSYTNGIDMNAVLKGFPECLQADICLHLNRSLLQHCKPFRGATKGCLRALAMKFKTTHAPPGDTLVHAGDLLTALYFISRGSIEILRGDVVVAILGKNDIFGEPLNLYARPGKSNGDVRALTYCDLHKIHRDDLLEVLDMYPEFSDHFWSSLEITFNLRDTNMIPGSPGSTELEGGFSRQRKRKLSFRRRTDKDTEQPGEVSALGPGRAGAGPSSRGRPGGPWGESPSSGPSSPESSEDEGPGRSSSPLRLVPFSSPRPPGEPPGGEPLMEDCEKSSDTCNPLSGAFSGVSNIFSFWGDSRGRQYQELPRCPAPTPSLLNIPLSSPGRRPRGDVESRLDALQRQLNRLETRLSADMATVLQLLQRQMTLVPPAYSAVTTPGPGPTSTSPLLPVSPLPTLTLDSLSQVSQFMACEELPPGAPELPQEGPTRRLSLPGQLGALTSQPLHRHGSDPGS
With `CCCCCC(=O)Nc1cccc(C2=NOC3(C2)C[C@@H](C(N)=O)N(C(=O)c2ccc(OC)cc2)C3)c1` (stereo partly drawn), the “hERG current change (%, negative = inhibition) at 10uM” value is -6.6%. Consider `CCc1ccc(NC(=O)Cn2nnc(C(=O)NCc3ccc(OC)cc3)c2N)cc1`, for which the “hERG current change (%, negative = inhibition) at 10uM” value is given as 8.05%. The figure for `Cc1cc2c(NC(=O)Nc3ccc(C(C)(C)C)cc3)cccc2nn1` is 24.8%; for `CN(CC(=O)Nc1c(Cl)cccc1Cl)C(=O)CCc1nc2sc3c(c2c(=O)[nH]1)CCCC3` it is 13.2%. The figure for `CC(C)OC(=O)CSc1nnc(-c2ccc([N+](=O)[O-])cc2)o1` is 4.46%; for `CCOc1ccc(N(C)S(=O)(=O)c2c[nH]c(C(=O)OC)c2)cc1` it is -5.78%; for `CC(C)CCCNc1nc(N2CCOCC2)nc(N2CCOCC2)n1` it is -14%. The figure for `Cc1ccc(CNC(=O)CSc2nc3ccsc3c(=O)n2Cc2ccccn2)cc1` is -22.5%.

Consider `CCOC(=O)c1cc(C)nc(N2CCCCC2)c1C#N`, for which the “hERG current change (%, negative = inhibition) at 10uM” value is -3.13%. The figure for `Cc1ccc(C(=O)COC(=O)CNS(=O)(=O)c2ccccc2)cc1[N+](=O)[O-]` is -3.62%; for `COc1ccc([C@H]2[C@@H](C#N)[C@H](C#N)N3CCCN23)cc1` it is 14.2%. The figure for `COc1cc(NS(=O)(=O)c2ccc(-c3ccc(=O)[nH]n3)o2)cc(OC)c1OC` is -5.99%; for `Cc1ccc(NC(=O)C2CCCN(c3ncccn3)C2)cc1F` (stereo not drawn) it is -0.00042%. Regarding `O=S(=O)(c1cccs1)N1CCN(S(=O)(=O)c2cccs2)CC1`, the “hERG current change (%, negative = inhibition) at 10uM” value came to 20.8%. The figure for `CC(C)c1nnc(NC(=O)CCC(=O)NCCc2ccccc2)s1` is 7.63%; for `CCCN(CC(=O)Nc1ccccc1C)C(=O)CCl` it is -0.969%; for `CCOc1ccccc1OCCCC(=O)NCCc1ccc(S(N)(=O)=O)cc1` it is 5.08%. The figure for `Cc1cccc(NC(=O)c2ccccc2OCC(=O)N2CCCC2)c1C` is -2.46%; for `CCCOC(=O)c1ccc(NC(=O)C(CC)CC)cc1` it is -4.06%. Regarding `O=C(Nc1ccccc1C(F)(F)F)C1CC(=O)N(c2ccccc2F)C1` (stereo not drawn), the “hERG current change (%, negative = inhibition) at 10uM” value is -16.3%. The figure for `COCCn1c(SCC(=O)N(C)c2c(N)n(Cc3ccccc3)c(=O)[nH]c2=O)nnc1-c1cccc(C)c1` is 24.7%; for `C[C@H](NC(=O)c1ccccc1Cl)C(=O)Nc1ccccc1F` it is -6.39%; for `CCCCSCCCNC(=O)c1ccc(CS(=O)(=O)c2ccc(OC)cc2)o1` it is -59.6%. The figure for `CC1(C)Cc2c(cnn2-c2cccc(F)c2)C(NC(=O)CCc2cnccn2)C1` (stereo not drawn) is -28.4%.
